T1: UNK ZnF1-6 (called full-length) (human, UniProt Q9C0B0 30-357)
T1 sequence: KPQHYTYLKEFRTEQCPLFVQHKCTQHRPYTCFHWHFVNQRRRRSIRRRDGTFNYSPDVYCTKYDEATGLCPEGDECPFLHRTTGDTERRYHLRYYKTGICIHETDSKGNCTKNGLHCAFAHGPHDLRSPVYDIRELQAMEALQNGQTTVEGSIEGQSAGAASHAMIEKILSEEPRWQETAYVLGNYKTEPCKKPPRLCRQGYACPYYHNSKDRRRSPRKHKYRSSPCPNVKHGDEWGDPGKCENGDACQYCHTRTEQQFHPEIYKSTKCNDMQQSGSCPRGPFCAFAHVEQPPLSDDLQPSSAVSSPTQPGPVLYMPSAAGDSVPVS

B1: chr9:88477803:88477904:+|3pUTR|ENSG00000106723|msi1|FALSE|bound_elsewhere (ssRNA)
RNA: GGGAGUUCUACAGUCCGACGAUCGACAAUACAAGACAUGAAUCUAUGUAUAAAAUUUAUCGGCCUUUCUCAUUUACCUGCUCUAGUAUUAUUGUAUUGUGUGUGCGUGCGUGUGUGAUGUCAGGCUGCCACGUAAAACUUCAGCAACAGAGGAUUGAGCAUCA
B2: chr13:48512728:48512895:-|CDS|ENSG00000136161|control|control|control (ssRNA)
RNA: GGGAGUUCUACAGUCCGACGAUCCUUUACCUGGGGUCAUAAUGCUUAUAGCCAGCUGGGCAAUGGGACAACUAAUCAUGGUUUAGUGCCCUGUCAUAUCUCUACUAAUCUGUCAAACAAACAAGUCAUUGAAGUUGCCUGUGGCAACAGAGGAUUGAGCAUCA
B3: chr3:98799561:98799662:-|CDS|ENSG00000057019|msi1|FALSE|unique (ssRNA)
RNA: GGGAGUUCUACAGUCCGACGAUCUUCAGUUGGUCAGCCCUCCACAUCCACUUUCAAGGCUACGGGGAACCAACCUCCCCCACUAGUGGGAACUUACAAUACACUUCUCUCCAGGACUGACAGCUGCUCCUCAGCCCAGGCCCACAACAGAGGAUUGAGCAUCA
B4: chr12:51291590:51292344:-|CDS|ENSG00000110934|control|control|control (ssRNA)
RNA: GGGAGUUCUACAGUCCGACGAUCUUCACCCACCAGCCCUAGGGCCUCCUUGGGGACUGGGACUGCAAGUCCUAGGACCUCCCUAGAGGUCUCUCCUAAUCCAGAACCACCAGAGAAGCCAGUAAGAACUCCUGAGGCCAAAGACAACAGAGGAUUGAGCAUCA
B5: chr17:57839567:57839672:-|3pUTR|ENSG00000181610|unk|FALSE|unique (ssRNA)
RNA: GGGAGUUCUACAGUCCGACGAUCGGGUUGUCACAAAGCUCAGUAUCAUGGUUUGACAGAAGCAGUUAUGUGAACUUUUAUGUUAGGACAUUACUAAAUAAAGAAUUCCCUAGCUGCUUAUAAAGUAAAUUUACUUUGAAUUGUCAACAGAGGAUUGAGCAUCA
B6: chr6:35869508:35869609:-|CDS|ENSG00000096063|unk|total|mutant (ssRNA)
RNA: GGGAGUUCUACAGUCCGACGAUCGACACCAUGGUGUGCCAGUCUUCCUCAACUGCCGGUCAGUCAUUCAGUGAACAACACAUCCGCCAACUUCAAGAAAGCAUUCGGGCAGAGAUACCCUGUGAAGAUGAACAAGAGCAAGAACAACAGAGGAUUGAGCAUCA
B7: ENSG00000181852:stop:overlap|stop_codon|ENSG00000181852|stop_codon|NA|stop_codon (ssRNA)
RNA: GGGAGUUCUACAGUCCGACGAUCGUGUCAACCCCAACCUUCAGAACCUGGAGGAGACAAUUGAAUACAACGAGAUCCUAGAGUAGCUUACAACCCAGAGAAGAGGAGGCAGAGUGCAAGUCCAGGAAAGUGAUCUCUAAAAUGCAACAGAGGAUUGAGCAUCA
B8: chr4:48498090:48498191:-|3pUTR|ENSG00000075539|msi1|total|mutant (ssRNA)
RNA: GGGAGUUCUACAGUCCGACGAUCAGGAAGCCUGAAGACUGACUACCAAAACAUGCAAUAUACUUAUUCACUGUCUAAGUCUGCCGUAUAACAUGAACUGGAGUCUCUAUCCUUUUCUAAAAUCGCAUUUUGUAAGAAAAGAAACAACAGAGGAUUGAGCAUCA
B9: chr12:46358264:46358384:-|3pUTR|ENSG00000134294|msi1|FALSE|unique (ssRNA)
RNA: GGGAGUUCUACAGUCCGACGAUCAAUGUGAUCUAGUGUAAUGGAAGACCUUUGAGAACCUGGGUGUAUUAACUUUGUGUAUAUAGUGUAAAUAUCCCCACUGUACUGUUAGAGGCCAACAAUUCUAGUAUGGCUUGUUGGCAACAACAGAGGAUUGAGCAUCA
B10: chr17:44319658:44319728:-|3pUTR|ENSG00000013306|msi1_unk|total|mutant (ssRNA)
RNA: GGGAGUUCUACAGUCCGACGAUCUCCCUGUGUUUGCUGCCGCUGGGCAUGUCUCCAGGAACCAAGAAGCCCUCAGCCUGGUGCCGUCUCCCUGACCCUUGUUAAUUCCUUAAGUCUAAAGAUGAUGAACUUCUGCCUGGUGCCCAACAGAGGAUUGAGCAUCA
B11: ENSG00000124766:be:win_1151|CDS|ENSG00000124766|bound_else_gene|NA|bound_elsewhere_windowed (ssRNA)
RNA: GGGAGUUCUACAGUCCGACGAUCCCCACUCCUCCUCUUCCUCCUCCUCGGGCUCCUCGUCCUCCGACGACGAGUUCGAAGACGACCUGCUCGACCUGAACCCCAGCUCAAACUUUGAGAGCAUGUCCCUGGGCAGCUUCAGUUCAACAGAGGAUUGAGCAUCA
B12: chr5:103029089:103029184:+|3pUTR|ENSG00000145730|msi1_unk|FALSE|overlapping (ssRNA)
RNA: GGGAGUUCUACAGUCCGACGAUCAACCAAGCUUUGAUUUAGAUUGAGUAAGAUUUACCCAGAAUGUCAGAUUCCUUUCCCUUUAGCACGUUUAAAGUUCUGUGUAUUUAAUUGUAAACUGUACUAGUCUGUGUGGGACUGUACCAACAGAGGAUUGAGCAUCA
B13: chr13:108210595:108210700:-|CDS|ENSG00000174405|unk|FALSE|unique (ssRNA)
RNA: GGGAGUUCUACAGUCCGACGAUCUCAGCACUUGAGCAAAAGUGGCUUAUACGGAUGAUCAUAAAGGAUUUAAAGCUUGGUGUUAGUCAGCAAACUAUCUUUUCUGUUUUUCAUAAUGAUGCUGCUGAGUUGCAUAAUGUCACUCAACAGAGGAUUGAGCAUCA
B14: ENSG00000070961:be:win_1201|CDS|ENSG00000070961|bound_else_gene|NA|bound_elsewhere_windowed (ssRNA)
RNA: GGGAGUUCUACAGUCCGACGAUCAAAAGACCAUGGCUUGCUGAGUGCACACCAAUUUAUAUACAAUACUUUGUGAAGUUCUUCAUUAUUGGAGUUACAGUUUUAGUGGUCGCAGUGCCAGAAGGUCUUCCACUUGCAGUCACGCAACAGAGGAUUGAGCAUCA

Some of the results follow.

The experiment has as its target T1, UNK ZnF1-6 (called full-length). The experiment is described as follows: nsRBNS (natural sequence RNA bind-n-seq); RBNS binding buffer (assumed for nsRBNS): 25 mM Tris pH 7.5, 150 mM KCl, 3 mM MgCl2, 0.01% Triton X-100, 500 ug/ml BSA, 20 U/ml SUPERase-In, 4 C; UNK is unkempt and MSI1 is Musashi-1; names of the RNAs are library labels; protein concentration not given here; high values mean tight binding.
For the molecule B1, the binding signal was 1.09 enrichment R.
As to B2, the binding signal was 0.616 enrichment R.
In the case of B3 it was 0.692 enrichment R; in that of B4, 0.656 enrichment R.
With B5, the binding signal is 0.74 enrichment R.
Turning to B6, the binding signal was found to be 0.477 enrichment R.
Turning to B7, the binding signal came to 0.976 enrichment R.
In the case of B8 it was 0.315 enrichment R.
In the case of B9 it was 0.395 enrichment R; in that of B10, 1.51 enrichment R; in that of B11, 0.877 enrichment R.
For the molecule B12, the binding signal came out at 1.16 enrichment R.
Molecule B13 displayed a binding signal of 0.311 enrichment R.
For B14 the value was 0.727 enrichment R.
